Measured values as given in PubChem BioAssay AID1745853 (National Center for Advancing Translational Sciences (NCATS), 2022).
Some of the results follow. These are further read-outs of the screen, such as a control signal, another cell line or another target. No call is given for them.

Assays:
Assay in all cases: Primary Screen for Target Class Profiling of Small Molecule Inhibitors of Methyltransferases
[1] = target: Glycine N-methyltransferase (Homo sapiens) (UniProt Q14749); details: purified enzyme, MTase-Glo SAH luminescence; measured here: GNMT inhibition; at 40 µM; stronger effect = lower value
In short: (§1)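 Each enzyme was assayed with SAM and its substrate. SAH formation detected by MTase-Glo luminescence; single-point 40 uM screen[…].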

[2] = target: Guanidinoacetate N-methyltransferase (Homo sapiens) (UniProt Q14353); details: purified enzyme, MTase-Glo SAH luminescence; measured here: GAMT inhibition; at 40 µM; stronger effect = lower value
In short: as §1

[3] = target: Histamine N-methyltransferase (Homo sapiens) (UniProt P50135); details: purified enzyme, MTase-Glo SAH luminescence; measured here: HNMT inhibition; at 40 µM; stronger effect = lower value
In short: as §1

[4] = target: Nicotinamide N-methyltransferase (Homo sapiens) (UniProt P40261); details: purified enzyme, MTase-Glo SAH luminescence; measured here: NNMT inhibition; at 40 µM; stronger effect = lower value
In short: as §1

[5] = target: Phenylethanolamine N-methyltransferase (Homo sapiens) (UniProt P11086); details: purified enzyme, MTase-Glo SAH luminescence; measured here: PNMT inhibition; at 40 µM; stronger effect = lower value
In short: as §1
% is scaled to controls: 0 for no effect and ±100 for the full control effect.

Compound	activity change, negative = inhibition [1] [%]	activity change, negative = inhibition [2] [%]	activity change, negative = inhibition [3] [%]	activity change, negative = inhibition [4] [%]	activity change, negative = inhibition [5] [%]
COc1ccc(Cc2nccc3cc(OC)c(OC)cc23)cc1OC	-47.4	-1.47	-4.64	-12.6	-3.64
Cc1noc(C)c1S(=O)(=O)N(C)C1CCOc2ccccc21 (stereo not given)	-6.24	-7.59	-2.45	-46.2	-8.48
COc1cccc(CN2C(=O)c3cc4ccccc4n3CC2(C)C(=O)NCCCOC(C)C)c1 (stereo not given)	8.96	0.914	10.4	14.5	2.82
CCC[C@@H]1O[C@@H]2C[C@H]3[C@@H]4CCC5=CC(=O)C=C[C@]5(C)[C@H]4[C@@H](O)C[C@]3(C)[C@]2(C(=O)CO)O1	4.63	8.03	5.47	-14.7	2.23
Cc1cnc(-c2ccccc2)n1C1CCN(S(=O)(=O)c2cccc(F)c2)CC1	-2.82	1.88	2.96	-4.5	2.86
CCOc1cccc(C2c3cccn3-c3sc4c(c3CN2C(=O)Nc2ccc(C)c(F)c2)CCCC4)c1 (stereo not given)	-4.18	4.61	-4.07	-7.43	0.637
COc1ccccc1NC(=O)c1sc(=S)n2c1[nH]c(=O)c1ccc(Cl)cc12	-2.12	4.57	5.42	-3.68	-19.6
CCC(C)NC(=O)c1ccc2c(=O)n(CC(C)C)c3nn(CC(=O)c4ccc(OC)cc4)c(=O)n3c2c1 (stereo not given)	2.23	0	8.61	1.01	1.42
Cc1nc2c(OCC(=O)OC(C)(C)C)cccn2c(=O)c1-c1cc(C)n(-c2cccc(F)c2)n1	-9.07	-9.77	-12.6	-23	-13.9
COC(=O)c1ccccc1NC(=O)Cn1nc2n(c1=O)CCCCC2	-1.08	-1.48	1.96	-5.95	0.588
O=C(NCC1CN(CC2CC2)CC12CN(c1ccccc1)C2)Nc1ccccc1 (stereo not given)	-8.79	-6.21	-17.5	-8.77	-4.1
COc1ccc(S(=O)(=O)N2CCc3c(C(=O)NCc4ccncc4)cccc32)cc1	-9.94	-4.42	-4.88	-11.3	-5.42
COc1ccc(CC(=O)Nc2ccc(N3CCC(NCCc4c(C)n[nH]c4C)CC3)cc2)cc1	-4.08	-1.52	-7.44	-7.29	1.12
CC1(C(=O)NC2CCCC2)Cn2c(c(-n3cccc3)c3ccccc32)C(=O)N1Cc1ccccn1 (stereo not given)	5.01	3.81	4.34	-36.3	2.6
Cc1ccc(N2C(=O)c3cc4occc4n3CC2(C)C(=O)NC2CCCCCCC2)cc1 (stereo not given)	3.38	8.62	10.4	6.8	1.09
Cc1ccccc1NC(=O)Nc1ccc(CC(=O)N(C)[C@@H](CC(C)C)C(=O)NCC[C@H](NC(=O)[C@@H]2CCCN2S(=O)(=O)c2cc(Cl)cc(Cl)c2)C(=O)O)cc1	-1.56	27.8	2.21	-7.82	-2.5
CC1(C(=O)O)CC[C@]2(C(=O)OC3OC(CO)C(O)C(O)C3O)CC[C@]3(C)C(=CCC4[C@@]5(C)CC[C@H](OC6OCC(O)C(O)C6OC6OC(CO)C(O)C(O)C6O)C(C)(C)C5CC[C@]43C)C2C1 (stereo not given in full)	1.17	2.42	2.9	-8.74	4.86
Cc1ccccc1CCN1C(=O)c2ccc(-c3ccco3)n2CC1(C)C(=O)NC1CCCCCCC1 (stereo not given)	-14.7	1.15	-10	-14.7	-1.3
O=C(Nc1cccc(Cl)c1)N1CCn2cccc2C1Cc1ccccc1 (stereo not given)	-10.1	0	4.72	-0.213	-2.1

Compound	activity change, negative = inhibition [1] [%]	activity change, negative = inhibition [2] [%]	activity change, negative = inhibition [3] [%]	activity change, negative = inhibition [4] [%]	activity change, negative = inhibition [5] [%]
O=C(Cc1ccc(-c2ccccc2)cc1)NC1CCC1	2.68	-1.65	8.34	-11.3	1.81
COc1ccc(CNC(=O)c2ccc(CN3C(=O)NC4(CCOCC4)C3=O)cc2)cc1	-3.21	-9.88	-2.83	-3.24	-0.494
Cc1ccc(N2C(=O)c3cc4occc4n3CC2(C)C(=O)NC2CCCC(C)C2C)c(C)c1 (stereo not given)	-4.8	-0.982	8.3	-3.35	-5.05
NCC(CNc1nc(Nc2cccc(NC(=O)N3CCCC3)c2)ncc1I)C(=O)c1cccs1 (stereo not given)	-31.7	-2.36	-66.5	-32.4	-7.29
CC(=O)N1Cc2ccccc2NC(=O)C12CCNCC2	-3.95	-9.51	-3.52	-13.3	-14.1
O=S(=O)(c1cc(F)ccc1F)N1CCC(n2cc(CCCO)nn2)CC1	0.524	-1.92	-0.232	0.423	-5.56
CCCn1c(=O)c2ccc(C(=O)NCC(C)C)cc2n2c(SCC(=O)Nc3ccc(C)cc3)nnc12	0.147	0	4.04	-6.17	5.41
O=C(c1ccc2ccccc2n1)N1C[C@@H](CO)[C@H](c2ccncc2)C1	-6.35	-2.27	-1.37	-1.77	-7.63
CC1OC(=O)C[C@@H]2C(C(=O)O)=CO[C@@H](O[C@H]3O[C@H](CO)[C@@H](O)[C@H](O)[C@H]3O)[C@H]12 (stereo not given in full)	1.81	3.93	10.1	-7.86	6.06
Cc1ccc(-c2nnc3n(Cc4ccccc4)c(=O)c4ccccc4n23)cc1	-17.1	0.078	-9.07	-9.21	-10.1
O=C(NC1CCCCC1)c1ccc2c(=O)nc3c(-c4ccc(F)cc4)n[nH]n3c2c1	2.04	0	-1.17	1.83	-3.27
COc1cc([C@@H](O[C@@H]2O[C@H](CO)[C@@H](O)[C@H](O)[C@H]2O)[C@@H]2CO[C@H](c3ccc(O)c(OC)c3)[C@H]2CO)ccc1O	-2.32	-6.23	4.72	-13.4	-7.77
O=C(CCc1nnc2n(Cc3ccc(Cl)cc3)c(=O)c3ccccc3n12)N1CCN(c2ccccc2)CC1	-0.909	2.48	6.25	-0.325	2.37
CC(C)OCCCn1c(=O)c2ccccc2n2c(=O)n(Cc3ccccc3Cl)nc12	-5.7	0.756	5.07	-16.6	-1.34
O=C(NCCOc1ccccc1)[C@@H]1C[C@H](c2ccc(F)cc2)N([S+](=O)([O-])C2CC2)C1	-8.93	-5.94	-2.49	-14.2	-7.26
COc1ccc(CNC(=O)c2cc3n(n2)CC(C)(C(=O)NCc2ccc(C)cc2)N(C)C3=O)c(OC)c1 (stereo not given)	6.28	0	8.88	1.63	6.02
CC(O)c1cc2n(n1)CCN(S(=O)(=O)c1ccc3c(c1)NC(=O)CO3)C2 (stereo not given)	-3.96	-7.17	-2.46	-9.91	-5.49
Cc1cc(NC(=O)Cn2c(=O)oc3cc(S(=O)(=O)N4CCCC4)ccc32)ccc1Br	7.91	0	8.92	-5.3	-28.2
CCCO[C@@H]1O[C@H](CO)[C@@H](O)[C@H](O)[C@H]1O[C@@H]1OC[C@@H](O)[C@H](O)[C@H]1O	4.16	6.98	-8.44	-5.36	-0.694

Compound	activity change, negative = inhibition [1] [%]	activity change, negative = inhibition [2] [%]	activity change, negative = inhibition [3] [%]	activity change, negative = inhibition [4] [%]	activity change, negative = inhibition [5] [%]
CC(C)CCN1CCC2(CC1)COc1ccccc1C(=O)N2	-4.99	-6.81	-1.95	-8.89	-10.3
CC(C)CNC(=O)c1cc(-c2ccsc2)nc2c1cnn2C	-25.3	-23.4	-33.5	-22.6	-15
CC(C)CCNC(=O)N1CCn2cccc2C1C (stereo not given)	4.28	3.07	13.6	2.54	7.02
COCCOCc1nc(C2CCN(C(=O)Nc3ccc(C(=O)OC)cc3)CC2)no1	-5.13	-5.8	-5.45	-8.04	-24.4
O=C(Nc1ccccc1)NC1CCCN(c2ccc3nnc(-c4ccccc4)n3n2)C1 (stereo not given)	-0.371	1.18	1.84	-2.47	1.99
Cc1nnc([C@@H]2CC(F)(F)CN2C(=O)c2cccc3[nH]ccc23)o1	0.544	-1.81	-1.6	1.43	2.3
CO/N=C(/C(=O)N[C@@H]1C(=O)N2C(C(=O)O)=C(Cn3ccc(=N)n3CCO)CS[C@H]12)c1csc(N)n1	0.51	5.08	12.2	-8.95	5.09
O=C(CC[C@H]1NC(=O)c2ccccc2NC1=O)Nc1nnc(C2CC2)s1	-6	-8.89	-2.16	-14.6	-7
COCC1CCN(CC2(O)CCCN(Cc3cccc(F)c3F)C2=O)CC1 (stereo not given)	-1.42	-2.74	2.33	-9.38	-2.24
O=C(O)c1ccc(CN2CCC[C@H]2c2nc(-c3ccc(F)cn3)no2)cc1	-14.6	-7.54	-10.2	-9.97	-6.97
O=C(O)C(c1ccc2c(c1)OCCO2)N1CCCN(c2ncccn2)CC1 (stereo not given)	-0.92	1.15	1.78	-2.6	-1.06
Cc1ccc(C(=O)N2CCCCCCNC(=O)[C@@H]3C[C@@H](c4nc(Cc5ccccc5)no4)C[C@@H]32)s1	-2.48	-6.52	0.753	-10.2	-3.63
O=C(N[C@@H](Cc1ccccc1)C(=O)CCl)OCc1ccccc1	-3.66	9.06	1.6	-7.86	4.23
CC1CCC2(OC1)OC1CC3C4CCC5C[C@@H](O[C@@H]6O[C@H](CO[C@@H]7OC[C@@H](O)[C@H](O)[C@H]7O)[C@H](O)[C@H](O)[C@H]6O)CC[C@]5(C)C4CC[C@]3(C)C1C2C (stereo not given in full)	-0.711	7.79	2.48	-2.73	6.77
O=C(c1ccc(Nc2nn3c(=O)c4ccccc4nc3s2)cc1)N1CCN(c2ccccn2)CC1	-19.5	0	-0.172	-1.04	1.16
COCCN1CC(C(=O)NCCOc2ccccc2)CCC1=O (stereo not given)	-3.61	-5.53	-0.431	-7.73	13
O=C(c1cn(C2CNC2)nn1)N1CCOCC1	1.05	0.048	0.157	4.73	4.67
CN1CC[C@H]2CN(C(=O)C3(Cn4ccnc4)CC3)C[C@@]2(C(=O)O)C1	-0.953	-0.424	0.277	-3.43	-24
C=CCn1c(=O)c2ccc(C(=O)NC(C)C)cc2n2c(=O)n(CC(=O)Nc3cccc(Cl)c3)nc12	5.75	0	7.29	5.05	6.72
